Consider 42 compounds from ChEMBL document CHEMBL4888484, “Replenishing the malaria drug discovery pipeline: Screening and hit evaluation of the MMV Hit Generation Library 1 (HGL1) against asexual blood stage Plasmodium falciparum ,using a nano luciferase reporter read-out” (2022).

Molecules are shown by their SMILES. The whole screen tested about 150,000 compounds, of which about 540 (0.36%) showed an effect of 50% or more. The list shows a part of the results.

The subject of the assay is Plasmodium falciparum. The assay is described as follows: Primary screen in NF54 nanoGlo assay, in single point, at 2uM, 72h; a lower Z score goes with more inhibition. The class given is functional, Erythrocyte. Particulars: timepoint 72 hour.
For orientation: % Inhibition means the change of the read-out against control, counted positive when it falls. On to `COc1cccc(CN[C@H](c2cnn(C)c2)C2(CO)CCC2)c1C`, for which the “% Inhibition” value came to 4% and the Z score is given as -0.51.
For `Cc1ccc(N(C)S(=O)(=O)c2cc(-c3nc(-c4ccc(Cl)cc4)no3)sc2C)cc1` the same measures were -2% and 0.25.
Taken in the same sequence, the figures for `CN(C)c1ccc([C@H]2OCCC3(CCCCC3)O2)cc1` were -2% and 0.23.
Taken in the same sequence, the figures for `COCc1ncc(C(=O)Nc2nc(CC3CC3)ns2)s1` were -11% and 1.99.
For the compound `CC(C)(C)OC(=O)N1C[C@H](C(=O)Nc2nncs2)[C@@H](C(=O)Nc2nncs2)C1`, the “% Inhibition” value is 22% and the Z score is recorded as -2.58.
Taken in the same sequence, the figures for `COc1ccc(CC(=O)N2CCCC[C@@H]2CCN2CCCCC2)cc1` were -10% and 1.33.
Turning to `Cc1ncsc1CN[C@@H](C)C(C)(C)CO`, the “% Inhibition” value is 0% and the Z score is 0.01.
Consider `O=C(CCc1nnn2c1CN(C(=O)c1cccc(F)c1)CC2)N1CCOCC1`, for which the “% Inhibition” value is reported as -11% and the Z score stood at 2.17.
With `Cc1ccc(CNC(=O)Cn2c(N(C)Cc3ccccc3)nc(C)cc2=O)cc1`, the “% Inhibition” value was -19% and the Z score is listed as 1.71.
Taken in the same sequence, the figures for `CC(C)N(CCOC(=O)N(C)C)C1CCC1` were -14% and 2.01.
On to `Cc1noc(COc2ccc(S(=O)(=O)c3ccccc3)cc2)n1`, for which the “% Inhibition” value is -16% and the Z score is listed as 1.86.
For `O=C(NCc1ccccn1)c1nnc(Cc2cccc(F)c2)o1` the same measures were -5% and 0.98.
Regarding `NC(=O)CN1CCCN(C(=O)c2cnc3ccccc3n2)CC1`, the “% Inhibition” value came out at 33% and the Z score is -0.88.
Taken in the same sequence, the figures for `CCC[C@@H](CCC(=O)NC1CCCCC1)C(=O)O` were 6% and -0.79.
For `Cc1ccc(-n2[nH]c(C(=O)N3CC[C@@H](C(F)(F)F)C(C)(C)C3)cc2=O)cc1` the same measures were -13% and 1.84.
For `CCn1cc(CN2CCC(n3nccc3NC(=O)c3ccc4c(c3)OCO4)CC2)c(C)n1` the same measures were 0% and 0.02.
On to `COc1cc2c(cc1OC)CN(C(=O)c1ccc3ccn(C(C)C)c3c1)CC2`, for which the “% Inhibition” value is on record as -6% and the Z score is given as 0.89.
Take `CCCN(Cc1c(C)nn(-c2ccccc2)c1Oc1ccccc1OC)C(=O)c1ccc(Cl)cc1`: the “% Inhibition” value turned out to be 10% and the Z score is recorded as -0.91.
Regarding `CC(C)n1nnnc1-c1ccc(NC(=O)Nc2cc[nH]n2)cc1F`, the “% Inhibition” value was -17% and the Z score worked out at 3.14.
Taken in the same sequence, the figures for `O=C1CN(C(=O)c2ccc3c(ccn3Cc3ccccc3)c2)CCN1` were -6% and 0.97.
Taken in the same sequence, the figures for `Cc1cc(CS(=O)(=O)N2CCOC[C@H]2c2cccc(F)c2)no1` were 7% and -1.14.
Taken in the same sequence, the figures for `CCN1C[C@H](C)C(=O)N(Cc2cccnc2)C1=O` were -13% and 1.13.
`CN(C)CC(NC(=O)NC1CC2CCC1O2)c1ccc(Cl)cc1` (centres undefined): the “% Inhibition” value came to 2% and the Z score is on record as -0.24.
Taken in the same sequence, the figures for `CCCc1nc(-c2ncsc2Cl)no1` were -4% and 0.72.
For `CCCN1C(=O)c2cc(C(=O)NCCC(C)C)nn2C[C@@]1(C)C(=O)NC1CCCC1` the same measures were 17% and -1.97.
On to `O=C(NCCc1cnc2c(Cl)cnn2c1)N1CCCC2(CCCC2)CC1`, for which the “% Inhibition” value is on record as -2% and the Z score is reported as 0.42.
Taken in the same sequence, the figures for `C[C@H]1CCN(CCOc2ccc(NC(=O)c3cc4c(s3)CCNC4)cc2)C1` were 7% and -1.1.
Consider `Cc1[nH]c(CN2[C@@H]3CC[C@H]2CN(C)CC3)cc1C#N`, for which the “% Inhibition” value is -7% and the Z score stood at 0.93.
Taken in the same sequence, the figures for `CN(C)Cc1nnc([C@H]2C[C@@H](NC(=O)c3conc3-c3ccccc3)C2)n1C` were -11% and 1.93.
Regarding `C[C@@H](c1ccccc1F)N(C)S(=O)(=O)CC1CCOCC1`, the “% Inhibition” value is reported as -6% and the Z score came to 0.68.
As for `O=C(NC(c1ccccc1)c1ccccc1)c1cc(-c2ccc(F)cc2)nn1-c1cccc(Cl)c1`, the “% Inhibition” value is on record as -12% and the Z score was 1.9.
Consider `C/C(=C\c1ccccc1)C(=O)N1CC2CC1CS2(=O)=O` (centres undefined), for which the “% Inhibition” value is listed as -12% and the Z score was determined as 1.38.
Taken in the same sequence, the figures for `O=C(C[C@H](c1cccc(C(F)(F)F)c1)c1c[nH]c2ccccc12)N1CCCCC1` were -7% and 0.68.
Taken in the same sequence, the figures for `Cn1cnnc1[C@@H]1CCCN1c1ncc(Cl)cc1Cl` were 1% and -0.21.
Taken in the same sequence, the figures for `COc1ccc(-c2cccc(-n3cncc3C(=O)NC3CCC[C@H]3OCc3ccccc3)c2)cc1OC` (some centres undefined) were -7% and 1.32.
Turning to `O=C(CNCCn1cccn1)NCc1cccs1`, the “% Inhibition” value worked out at 1% and the Z score is -0.14.
Taken in the same sequence, the figures for `Cc1ccc(OC[C@H]2c3ccsc3CCN2C(=O)CN(C(=O)C2CCCC2)C(C)(C)C)cc1` were -23% and 2.03.
For `CCCCc1nc(CN2CCc3[nH]cnc3[C@@H]2c2cnn(C)c2)c[nH]1` the same measures were -4% and 0.55.
Consider `COCCN(C(=O)[C@@H]1CCCO1)C1CCC(C)C1` (some centres undefined), for which the “% Inhibition” value is -10% and the Z score is 1.5.
Take `CCc1c(C)sc2c1CCN(CC(=O)Nc1ccc(F)cc1F)[C@@H]2c1ccccc1`: the “% Inhibition” value amounted to 7% and the Z score was -0.68.
Taken in the same sequence, the figures for `O=C(NCc1ccc(F)cc1)Nc1ccc2c(c1)CCN2S(=O)(=O)c1ccccc1` were -14% and 1.85.
For `CCn1cnnc1[C@H]1CCCN(Cc2cnc(-c3ccccc3)o2)C1` the same measures were -10% and 1.65.
